Sequences with one replicate were seen in a single cluster, so their values are uncertain.
Tested on: ATP
Assay: switch fluorescence ratio, 500 uM ATP over buffer (Cy3 cluster intensity, sum of 5 cycles each) (fold (ratio)); higher = stronger signal-on switching upon ATP binding; sequences stand for … in TCGTCGGCAGCGTCAGATGTGTATAAGAGACAGTTTTTTTTTTTTTTTTTTTTTTTTT…TC
Conditions: aptamer strand: ATP DNA aptamer (quencher-CACCTGGGGGAGTATTGCGGAGGAAGG + anchor), 100 nM annealed; ATP concentration: 500 uM; one replicate
Summary of the method: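 Clusters carrying Cy3-labelled switching strands on a modified Illumina MiSeq flow-cell were annealed to 100 nM quencher-labelled ATP aptamer and imaged in selection buffer. They were imaged again after 15 min with 500 uM ATP at 22 °C, over five buffer/ATP cycles with NaOH stripping and re-annealing in between. For each cluster, the fluorescence ratio is the summed Cy3 intensity of the target cycles divided by that of the buffer cycles, averaged per switch-domain sequence. Clusters outside 100-1000 RFU were left out.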
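Note: ATP exposure 15 min at 22 °C before imaging.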

Row | Sequence | switch fluorescence ratio
1 | GATCTATGGG | 0.968
2 | AGGCCGAGTG | 0.988
3 | GGATAGGGCA | 1.04
4 | CGAAGAAGAC | 1.27
5 | AAATATTATT | 1
6 | AGCAAAGAGG | 1.03
7 | GTGAGCTCTG | 0.945
8 | AGGTTTAGCT | 1.01
9 | TTCTGTAGAA | 0.977
10 | ATCGGTTGTC | 1.01
11 | GTGCTGGTGT | 1.01
12 | ATTAACTTCC | 2.38
13 | AAAGAGAAGC | 1.03
14 | GTTGAACGGG | 1.01
15 | ATAGGGCGGA | 1.02
16 | ACTTTCGGGG | 1.01
17 | TAGCTCTGAG | 1.02
18 | CTGAGGTCAT | 1.1
19 | GGTTCTAATT | 0.931
20 | GAAATAAAGT | 1
21 | GATTGATTAA | 1.01
22 | CCCGCGGTTG | 1.21
23 | CAGTGATTCG | 1.01

Row | Sequence | switch fluorescence ratio
24 | TCCGATACGG | 1.01
25 | CACCCGTCCG | 1.08
26 | TGGCTGCTTT | 0.982
27 | ATCGCTTCGG | 1.02
28 | CCCCGGAACT | 1.74
29 | AGTTGGGGCA | 1.04
30 | ACGCCTTAGA | 1.02
31 | TGCAAGCAC | 2.18
32 | CCTTGCGAAC | 4.24
33 | AAGGACAGCA | 1.04
34 | AGTAGGGTCG | 0.998
35 | GGTACCGCGG | 0.994
36 | TCTAGGCATG | 0.999
37 | ATGTTTCCCG | 0.984
38 | TTACTCCGAG | 1.78
39 | GGTGTAGCGT | 1.1
40 | ATAGCAAAGC | 1.09
41 | ACATGCTTAG | 0.975
42 | TTTTCGTGTA | 0.944
43 | GGGCGAGGAC | 1.02
44 | CATAAGCGGA | 1.02
45 | CACGGTGACA | 1.09
46 | TCCTAAGCT | 1.09

Row | Sequence | switch fluorescence ratio
47 | TTATAAATAG | 0.981
48 | CTTAGCATAC | 3.52
49 | TACTTGCAGT | 1
50 | AGCGACCCTC | 1.11
51 | TGCTGGACCA | 0.977
52 | ATGTAGGTT | 0.993
53 | GGAAAGTGTA | 1.01
54 | TTAGTGTGTA | 1.02
55 | GATCCAGGGT | 1.09
56 | CAGTAGCGAT | 5.88
57 | TGTCCGGCGC | 1.06
58 | TTATAGTCT | 0.961
59 | CAAGGCGCCG | 0.981
60 | TTGTTTGTCA | 0.977
61 | GATCTTAATT | 0.979
62 | ATGACTCCAG | 1.02
63 | AGTTGCCAG | 1.04
64 | GGGCGTGCTC | 0.984
65 | CGTAGCGGAG | 1.08
66 | TTCTGAGGTT | 0.994
67 | GCACATGGGG | 1.11
68 | GATGATTCAG | 0.98
69 | TGACTGCTGA | 1.02

Row | Sequence | switch fluorescence ratio
70 | ATTTTTAATA | 1.01
71 | AAGGAGGCGG | 1.04
72 | TAGTCGGTTC | 0.952
73 | TGGATTTAGG | 1.02
74 | TTGTGCGTCG | 0.965
75 | GGCCGGCTGA | 1
76 | ATACTCCCTC | 2.76
77 | TGATGAGCAC | 1.04
78 | ACTAGGCAAA | 1.14
79 | GGGATTCCTT | 0.998
80 | AACGTACATC | 1.65
81 | TTGGAGCGGC | 1.24
82 | CGGTTATAAC | 1.03
83 | CGCCCACAAT | 2.31
84 | CCGTTGCTCG | 1.08
85 | CCCTTAATGG | 1.03
86 | GGTACGGGC | 1.04
87 | CGTCGATCTC | 1.12
88 | TGCAACTAGA | 1.01
89 | ACTGATTTGC | 1.06
90 | TTAGTGTCGG | 1.02
91 | AGACCTTTAT | 1.01
92 | GCAATAGGTG | 1.58

Row | Sequence | switch fluorescence ratio
93 | TGGGGGGCCC | 1.06
94 | GAAGACGGGG | 0.983
95 | AATTGACCAA | 1.01
96 | ATTGCTTATA | 1.02
97 | TTAAAATTCC | 1.16
98 | TGAAATATGA | 1.05
99 | TTCGGATCGT | 1.23
100 | GAATATAGGA | 0.947
101 | TCTAAGGACT | 1.03
102 | AAGGGGTGCT | 0.981
103 | CTCGTAACGA | 1.05
104 | ATAATTTCT | 1.06
105 | TTACCTTGGT | 1.07
106 | TTTCGCACCT | 1.03
107 | GTTTGGGAAG | 1
108 | GCTATTTGGT | 0.98
109 | ACGGTCTGGG | 1.02
110 | TCTTACTTAT | 0.961
111 | GCAGATCAAC | 1.07
112 | CCAGTTGTGT | 1.11
113 | CAGATGGTCC | 1.03
114 | ACCTTGACCT | 1.31
115 | GATAACGCCG | 0.975

Row | Sequence | switch fluorescence ratio
116 | GTTCTGTCTT | 0.98
117 | ATACTTTATA | 1.03
118 | AGCGTTCGCG | 0.981
119 | TGGGTCGGG | 0.953
120 | TTACCTATAT | 1.04
121 | GACGGAAATT | 0.996
122 | CGTAGATGGA | 1.04
123 | GTAAAAAGGG | 0.981
124 | TACTAATAAA | 1.04
125 | CGGTTTCGG | 0.995
126 | ACTACTAGGC | 1.03
127 | CTAACACGGG | 1.02
128 | GCGGCCCTCT | 1.03
129 | TTGATGCAGT | 0.973
130 | TGGAAGACCG | 1.01
131 | ACTAAAAATC | 1.04
132 | ATGAGGCATA | 0.947
133 | AAGGGCCCGA | 1.01
134 | GCTTTGGTGG | 0.991
135 | CGTGGCCGCC | 1.01
136 | TAGGGCGATA | 1.08
137 | CGAATGGCGG | 0.94
138 | AAAAGCCCAC | 1.02

Row | Sequence | switch fluorescence ratio
139 | AACATTCGC | 1.11
140 | AACGCCCAGC | 1.12
141 | TGGACCAATG | 1.04
142 | TGAGGCTA | 0.97
143 | TGACATATCA | 1
144 | ATAAGACTAT | 0.974
145 | GGCTGCGGCC | 0.998
146 | GAACTGAGGC | 0.953
147 | TCGGATGG | 1.01
148 | AGCATATGCG | 1.08
149 | TACGGAATG | 1.16
150 | CCTTGAATC | 1.03
151 | ACTAAGCTCA | 1.09
152 | TCTAGTCCTA | 1.02
153 | TATAGCTATG | 0.998
154 | GCTGCGTCTT | 1
155 | GATTGTGAGG | 1
156 | GGCGAAATGC | 1.76
157 | CTCATCCCA | 1.07
